Experimental data reported in PubChem BioAssay AID1460 (National Center for Advancing Translational Sciences (NCATS), 2008).
Where “and” joins values, the source holds several entries; their conditions need not be identical. Identical values can stand only once. Screen size: about 270,000 compounds; about 5,800 (2.1%) were called active. Inconclusive results, whose numbers are uncertain, are shown with a selection of clear calls. Calls come from the whole dose curve; as a rule, active = well fitted inhibition curve with a large enough effect; inconclusive = small, poorly fitted or top-dose-only effect; inactive = flat fitted curve, though single readings scatter. Potencies beside an inconclusive call are fits to weak or partial responses and may not hold up.

target: Microtubule-associated protein tau (Homo sapiens) (UniProt P10636); assay: qHTS for Inhibitors of Tau Fibril Formation, Thioflavin T Binding; settings: recombinant tau K18 P301L (four-repeat tau fragment), heparin-induced fibrillization, ThT fluorescence; series mostly up to 57.4 µM; note: nearly all actives have a fitted effect of over 55% in size
How it was run: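 K18 P301L tau (15 uM + 0.24 uM Alexa 594-tagged), heparin 20 uM, NaOAc pH 7, 6 h 37 C; ThT 30 uM, 1 h RT, ex 450/em 510 nm.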
Potency is the fitted concentration of half-maximal effect; tags give direction and shape of the fitted curve.

Chain of UniProt P10636 (P10636 whole entry, looked up, the tested form may be a part): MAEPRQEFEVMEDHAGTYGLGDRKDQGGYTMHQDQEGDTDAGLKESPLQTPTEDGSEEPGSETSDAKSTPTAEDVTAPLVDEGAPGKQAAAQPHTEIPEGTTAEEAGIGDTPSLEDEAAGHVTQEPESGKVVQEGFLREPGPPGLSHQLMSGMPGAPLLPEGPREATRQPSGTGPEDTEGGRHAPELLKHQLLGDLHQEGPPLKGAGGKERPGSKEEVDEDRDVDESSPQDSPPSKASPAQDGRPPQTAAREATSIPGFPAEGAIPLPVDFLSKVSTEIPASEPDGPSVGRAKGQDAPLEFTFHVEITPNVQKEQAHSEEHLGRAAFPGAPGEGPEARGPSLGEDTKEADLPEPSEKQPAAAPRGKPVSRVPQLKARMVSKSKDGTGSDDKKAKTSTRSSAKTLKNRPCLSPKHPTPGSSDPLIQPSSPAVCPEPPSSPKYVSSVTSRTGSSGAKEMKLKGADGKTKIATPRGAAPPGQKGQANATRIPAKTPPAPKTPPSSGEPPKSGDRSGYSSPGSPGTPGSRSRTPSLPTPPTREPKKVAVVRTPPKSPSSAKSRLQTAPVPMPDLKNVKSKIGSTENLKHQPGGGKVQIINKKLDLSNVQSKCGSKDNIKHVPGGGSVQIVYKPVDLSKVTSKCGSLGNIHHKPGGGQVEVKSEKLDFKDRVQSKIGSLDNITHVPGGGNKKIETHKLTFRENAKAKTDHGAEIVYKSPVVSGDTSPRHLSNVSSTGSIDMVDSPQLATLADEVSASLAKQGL

SMILES	Potency
Cc1ccc2[nH]c(=O)c(CN(CC3CCCO3)C(=S)NCc3ccco3)cc2c1 (stereo not drawn)	inactive
COc1cc(NC(=O)CSc2nc(-c3ccc(C(C)C)cc3)no2)cc(OC)c1	inactive
CC(C)(C)OC(=O)N1CCC(c2c(C(=O)NCCN3CCOCC3)cnn2-c2ccc(F)cc2)CC1	inactive
COc1ccccc1[C@H]1C(c2cccc(Cl)c2)=NN(c2ccccc2)[C@@H]1CO	inactive
COc1ccc(C(=O)Nc2ccc(-c3ccc(NC(=O)c4ccc(OC)cc4)c(OC)c3)cc2OC)cc1	inconclusive: 0.794 µM [inhibitor, full curve]
Cc1ccc(CCNC(=O)c2nnn(-c3cccc(C)c3)c2N)cc1	inconclusive: 39.8 µM [inhibitor, single point]
C/C(CC(=O)NCCCN1CCOCC1)=N\NC(=O)COc1ccc(Cl)cc1	inconclusive: 0.126 µM [inhibitor, full curve, poor fit]
COc1ccc(C2=C(Nc3ccc(C)cc3)c3ccccc3C2=O)cc1	inactive
COc1ccc2c(c1)CCc1sc(NC(=O)c3ccc(C)cc3)nc1-2	inconclusive: 4.47 µM [inhibitor, partial curve]
O=C(NCCCNc1ccc([N+](=O)[O-])cc1)C(F)(F)F	inactive
O=C(c1cccc(Cl)c1)N1c2ncnn2C2(CCCCC2)[C@@H]2CCCC[C@@H]21	inconclusive: 1.78 µM [inhibitor, partial curve, poor fit]
O=C(O)COc1cccc2nsnc12	inactive
Cc1ccc(-n2c(SCC(=O)OC(C)C)nnc2-c2ccncc2)cc1	inactive
NNc1nc(-c2ccccc2)c2ccccc2n1	inconclusive: 17.8 µM [inhibitor, single point]
CCCOc1ccc(C2c3c(oc4ccccc4c3=O)C(=O)N2CCCN2CCOCC2)cc1 (stereo not drawn)	inactive
C/C(CC(=O)Nc1ccc(N(C)C)cc1)=N\NC(=O)Cc1csc(N)n1	inactive
COc1cc(/C=N/NC(=O)c2ccc(F)cc2)ccc1OC(=O)c1ccco1	inactive
O=C(CCCOc1ccccc1)NCCc1nc2ccccc2[nH]1	inconclusive: 31.6 µM [inhibitor, partial curve, poor fit]
O=C(O)c1ccccc1Sc1ccccc1S(=O)(=O)NC1CCCCC1	inactive
CC1(C)CC(=O)C(C(C2=C(O)CC(C)(C)CC2=O)c2ccco2)C(=O)C1 (stereo not drawn)	inconclusive: 15.8 µM [inhibitor, partial curve]
O=C(Nc1nc2n(n1)C(c1ccccc1)C=C(c1ccc(Cl)cc1)N2)c1ccco1 (stereo not drawn)	inconclusive: 28.2 µM [inhibitor, single point]
NC(=S)NNC(=S)Nc1ccccc1	inactive
COc1ccc(N2Cc3cccc(C(=O)Nc4ccc(Cl)cc4)c3C2=O)cc1	inconclusive: 44.7 µM [inhibitor, single point]

SMILES	Potency
CC[C@H](C)[C@H]1O[C@]2(CC[C@@H]1C)C[C@@H]1C[C@@H](C/C=C(\C)[C@H](O[C@@H]3C[C@H](OC)[C@H](O[C@@H]4C[C@H](OC)[C@@H](O)[C@H](C)O4)[C@H](C)O3)[C@@H](C)/C=C/C=C3\CO[C@@H]4[C@H](O)C(C)=C[C@@H](C(=O)O1)[C@]34O)O2	inconclusive: 2 µM [inhibitor, partial curve]
COc1cc([N+](=O)[O-])ccc1NC(=O)Nc1nc2c(s1)CCCC2	inconclusive: 2.24 µM [inhibitor, partial curve]
CC[N+](CC)(CC)CC(=O)Nc1c(C)cccc1C	inconclusive: 14.1 µM [inhibitor, partial curve]
Cc1cc(NC(=O)CSc2nc3c(sc4ccccc43)c(=O)n2CCc2ccccc2)n[nH]1	inconclusive: 17.8 µM [activator, partial curve]
Cc1ccc(-c2noc(-c3cc4ccccc4oc3=O)n2)cc1	inconclusive: 4.47 µM [inhibitor, full curve]
Cc1oc2ccccc2c1-c1cn2c(n1)SCC2	inconclusive: 35.5 µM [inhibitor, single point]
Cc1cc(NCc2ccccc2)nc2ccccc12	inactive
COc1ccc(C)cc1NC(=O)C(Cc1ccccc1)NS(=O)(=O)c1ccc(Br)s1 (stereo not drawn)	inactive
N#C/C(C(=O)c1ccccc1)=C1/SC=C(N)N1c1ccccc1	active: 28.2 µM
Cc1cc(/C=C2\Cc3ccccc3C2=O)c(C)n1-c1ccccc1	inconclusive: 3.98 µM [inhibitor, partial curve]
Cc1ccc2nc(Nc3nc(CSc4nnnn4-c4ccccc4)cc(=O)[nH]3)nc(C)c2c1	inconclusive: 2.82 µM [inhibitor, full curve]
Cn1cccc1/C=N/n1c(-c2ccc(C(C)(C)C)cc2)n[nH]c1=S	inconclusive: 28.2 µM [inhibitor, single point]
Cc1cc(=O)oc2cc(OCc3nnc(-c4ccccc4Br)o3)ccc12	inconclusive: 3.55 µM [inhibitor, full curve]
CCc1cccc(Nc2c([N+](=O)[O-])cc(C(=O)N3CC(=O)Nc4ccccc43)cc2[N+](=O)[O-])c1	inconclusive: 8.91 µM [inhibitor, full curve]
COc1ccc(Cc2noc(COc3ccc(Cl)cc3)n2)cc1	inconclusive: 31.6 µM [inhibitor, partial curve]
CCOc1ccc(NC(=S)NNc2ccnc3cc(Cl)ccc23)cc1	active: 12.6 µM
COc1ccc(/C=N/Nc2nonc2N)cc1	inconclusive: 22.4 µM [inhibitor, single point]
O=C(N/N=C/c1ccc(-c2cccc([N+](=O)[O-])c2)o1)[C@H]1C[C@@H]1c1ccccc1	inconclusive: 7.94 µM [inhibitor, partial curve]
COC(=O)Cn1c2ccc(F)cc2c2nc(C)sc21	inconclusive: 39.8 µM [inhibitor, single point]
O=C(Nc1c(C(=O)O)[nH]c2ccc(F)cc12)c1cccc(C(F)(F)F)c1	inconclusive: 28.2 µM [inhibitor, partial curve]
Cc1nc(N2CCN(c3ccccc3)CC2)nc2c1C(=O)CC(C)C2 (stereo not drawn)	inconclusive: 17.8 µM [inhibitor, partial curve]
CCC(Sc1nc2ccccc2c(=O)[nH]1)C(=O)Nc1ccc(C(C)=O)cc1 (stereo not drawn)	inconclusive: 11.2 µM [inhibitor, partial curve]
CC(C)(Oc1ccc(Cl)cc1)C(=O)NCc1ccco1	inconclusive: 39.8 µM [inhibitor, single point]

SMILES	Potency
COc1ccc(N=Cc2c(O)cc(C)oc2=O)cc1	inactive
N[C@H](CS)C(=O)O	inconclusive: 14.1 µM [inhibitor, partial curve]
CN(C)c1ccc(N/C=C/C(=O)c2ccc(F)cc2)cc1	active: 2 µM
Cc1cc2nc(SCCOC(=O)Nc3ccc(Cl)cc3)nc(C)c2cc1C	inactive
CC1CC2(CCCCC2)Nc2ccc3ccccc3c21 (stereo not drawn)	inconclusive: 39.8 µM [inhibitor, single point]
Cc1cccc(/C=N/n2c(-c3ccco3)n[nH]c2=S)c1	inconclusive: 8.91 µM [inhibitor, full curve, poor fit]
COC(=O)CSc1ncnc2c1cnn2Cc1ccccc1	inactive
COCCCn1c(Cc2csc(Nc3ccccc3)n2)nnc1SCC(N)=O	inactive
O=C(Nc1cccc2ccccc12)c1cc2c(cc1Br)OCO2	inconclusive: 7.94 µM [inhibitor, full curve]
CCOC(=O)c1c(NC(=O)CSc2nnc(CNc3ccc(Cl)cc3)o2)sc(C)c1C	inactive
Cc1cccnc1NC(=S)NCc1ccco1	inactive
COc1cc2ccccc2cc1C(=O)NC(=S)Nc1cc(C(=O)O)ccc1C	inconclusive: 25.1 µM [inhibitor, partial curve, poor fit]
COC(=O)[C@@]1(Cc2ccc(OC)cc2)[C@H]2c3cc(C(=O)N(C)C)n(CCc4ccc(OC)c(Br)c4)c3C[C@H]2CN1C(=O)c1ccccc1	inactive and inconclusive: 11.2 µM [inhibitor, partial curve]
CN(C)C(CNC(C(=O)Nc1ccc([N+](=O)[O-])cc1Br)c1ccccc1)c1ccccc1 (stereo not drawn)	inconclusive: 12.6 µM [inhibitor, partial curve]
O=C(O)CC1S/C(=N/N=C/C=C/c2ccccc2[N+](=O)[O-])NC1=O (stereo not drawn)	inactive
Cn1c(-c2ccccc2)cc2c3no[n+]([O-])c3ccc21	inconclusive: 2.51 µM [inhibitor, full curve]
Cc1nc(N2CCOCC2)c2c(C(=O)N(C)Cc3ccccc3)c(C)oc2n1	inactive
O=C(Nc1cc(C(=O)Nc2ccc(S(=O)(=O)O)cc2S(=O)(=O)O)cc(C(=O)Nc2ccc(S(=O)(=O)O)cc2S(=O)(=O)O)c1)Nc1cc(C(=O)Nc2ccc(S(=O)(=O)O)cc2S(=O)(=O)O)cc(C(=O)Nc2ccc(S(=O)(=O)O)cc2S(=O)(=O)O)c1	inactive and inconclusive: 22.4 µM [activator, partial curve]
CCOC(=O)N1CCN(C(=O)COc2cc(=O)n(CC)c3ccccc23)CC1	inactive
CCOc1ccc(N(Cc2ccc(OC)c(OC)c2)C(=O)c2ccco2)cc1	inconclusive: 35.5 µM [inhibitor, single point]
O=C(Nc1nnc(S(=O)(=O)N2CCCCCC2)s1)c1ccccc1F	inconclusive: 14.1 µM [inhibitor, partial curve]
O=C1CC(=O)CC(c2ccccc2)C1	inconclusive: 12.6 µM [inhibitor, partial curve]
